# Measured values published in PubChem BioAssay (NCI).
#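 Briefly, cells in 96-well plates were exposed to five compound concentrations for 48 h, and endpoints were estimated by linear interpolation. At the TGI there is no net growth.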 For part of its entries the source gives two or more results. They are shown here; other results are not. An entry can have further records. For part of these data: The tests behind the records often covered other concentration ranges, which the source does not state; some values may only mark the edge of a range. For part of these data: Values that stand side by side repeat one measurement (runs, samples, wells, individuals or studies). Brackets tell where a record comes from. A, B and so on number the origins entry by entry.
# Experiments:
# Assay in all cases: growth of human tumour cells (NCI), 48 h
# MALME-3M melanoma = test system: MALME-3M melanoma
# PC-3 prostate = test system: PC-3 prostate
# CCRF-CEM leukemia = test system: CCRF-CEM leukemia
smiles,measurement,setting,value
Cc1ccc(NC(=O)c2ccc(CN3CC[C@H](N(C)C)C3)c(C(F)(F)F)c2)cc1Nc1nccc(-c2cncnc2)n1,TGI,MALME-3M melanoma,"803 nM [sample A, mean of 2 tests] and > 10 µM [sample B, 1 test]"
CO[C@@H](C)Cn1c(=O)n(C)c2cnc3ccc(-c4cncc(C(C)(C)O)c4)cc3c21,TGI,PC-3 prostate,"22.4 µM [sample A, 1 test] and 916 nM [sample B, mean of 2 tests]"
CCOC(=O)C(CC(C)C)NC(=O)C(Cc1ccc(N(CCCl)CCCl)cc1)NC(C)=O (stereo not drawn),TGI,CCRF-CEM leukemia,> 100 µM and 8.08 µM
